Results as given in publication PMC9911399, “Two distinct binding modes provide the RNA-binding protein RbFox with extraordinary sequence specificity”.
Changes are numbered by the printed parent chain; changes in the protein carry UniProt numbers. The list shows a part of the results.

T1: RBFOX1 RRM (Homo sapiens, UniProt Q9NWB1 109-208)
T1 sequence: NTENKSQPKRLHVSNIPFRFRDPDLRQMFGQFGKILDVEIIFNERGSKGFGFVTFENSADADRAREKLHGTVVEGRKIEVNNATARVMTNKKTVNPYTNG

B1: CCCACGC (DNA:RNA)
RNA: GGGAGACCGGAAUUCAGAUUGUCCCCCACGCUUAAAUCCCGUCGUAGCCACCA
DNA 1: CAATCTGAATTCCGGTCTCCC
DNA 2: TGGTGGCTACGACGGGATT
B2: ACGACAC (DNA:RNA)
RNA: B1 RNA with C25A, C27G, G30A
DNA 1: CAATCTGAATTCCGGTCTCCC
DNA 2: TGGTGGCTACGACGGGATT
B3: GUGAACA (DNA:RNA)
RNA: B1 RNA with C25G, C26U, C27G, C29A, G30C, C31A
DNA 1: CAATCTGAATTCCGGTCTCCC
DNA 2: TGGTGGCTACGACGGGATT
B4: UUCUUCG (DNA:RNA)
RNA: B1 RNA with C25U, C26U, A28U, C29U, G30C, C31G
DNA 1: CAATCTGAATTCCGGTCTCCC
DNA 2: TGGTGGCTACGACGGGATT
B5: CCGGUGA (DNA:RNA)
RNA: B1 RNA with C27G, A28G, C29U, C31A
DNA 1: CAATCTGAATTCCGGTCTCCC
DNA 2: TGGTGGCTACGACGGGATT
B6: UGGUGGC (DNA:RNA)
RNA: B1 RNA with C25U, C26G, C27G, A28U, C29G
DNA 1: CAATCTGAATTCCGGTCTCCC
DNA 2: TGGTGGCTACGACGGGATT
B7: GGUUAUA (DNA:RNA)
RNA: GGGAGACCGGAAUUCAGAUUGUCCGGUUAUAUUAAAUCCCGUCGUAGCCACCA
DNA 1: CAATCTGAATTCCGGTCTCCC
DNA 2: TGGTGGCTACGACGGGATT
B8: GCUACCA (DNA:RNA)
RNA: B1 RNA with C25G, C27U, G30C, C31A
DNA 1: CAATCTGAATTCCGGTCTCCC
DNA 2: TGGTGGCTACGACGGGATT
B9: GCGCGCA (DNA:RNA)
RNA: B7 RNA with G26C, U27G, U28C, A29G, U30C
DNA 1: CAATCTGAATTCCGGTCTCCC
DNA 2: TGGTGGCTACGACGGGATT
B10: GACUUGC (DNA:RNA)
RNA: B1 RNA with C25G, C26A, A28U, C29U
DNA 1: CAATCTGAATTCCGGTCTCCC
DNA 2: TGGTGGCTACGACGGGATT
B11: CUCGUCU (DNA:RNA)
RNA: B1 RNA with C26U, A28G, C29U, G30C, C31U
DNA 1: CAATCTGAATTCCGGTCTCCC
DNA 2: TGGTGGCTACGACGGGATT
B12: CAGAGUC (DNA:RNA)
RNA: B1 RNA with C26A, C27G, C29G, G30U
DNA 1: CAATCTGAATTCCGGTCTCCC
DNA 2: TGGTGGCTACGACGGGATT
B13: GGCCUCU (DNA:RNA)
RNA: B7 RNA with U27C, U28C, A29U, U30C, A31U
DNA 1: CAATCTGAATTCCGGTCTCCC
DNA 2: TGGTGGCTACGACGGGATT
B14: GAACCUA (DNA:RNA)
RNA: B7 RNA with G26A, U27A, U28C, A29C
DNA 1: CAATCTGAATTCCGGTCTCCC
DNA 2: TGGTGGCTACGACGGGATT
B15: UUCACUA (DNA:RNA)
RNA: B1 RNA with C25U, C26U, G30U, C31A
DNA 1: CAATCTGAATTCCGGTCTCCC
DNA 2: TGGTGGCTACGACGGGATT
B16: UUGUCAG (DNA:RNA)
RNA: B1 RNA with C25U, C26U, C27G, A28U, G30A, C31G
DNA 1: CAATCTGAATTCCGGTCTCCC
DNA 2: TGGTGGCTACGACGGGATT
B17: GGUGUAC (DNA:RNA)
RNA: B7 RNA with U28G, A29U, U30A, A31C
DNA 1: CAATCTGAATTCCGGTCTCCC
DNA 2: TGGTGGCTACGACGGGATT
B18: GAAUCCA (DNA:RNA)
RNA: B7 RNA with G26A, U27A, A29C, U30C
DNA 1: CAATCTGAATTCCGGTCTCCC
DNA 2: TGGTGGCTACGACGGGATT
B19: UCAUGGG (DNA:RNA)
RNA: B1 RNA with C25U, C27A, A28U, C29G, C31G
DNA 1: CAATCTGAATTCCGGTCTCCC
DNA 2: TGGTGGCTACGACGGGATT
B20: UCGGGGA (DNA:RNA)
RNA: B1 RNA with C25U, C27G, A28G, C29G, C31A
DNA 1: CAATCTGAATTCCGGTCTCCC
DNA 2: TGGTGGCTACGACGGGATT
B21: AAUACGG (DNA:RNA)
RNA: B1 RNA with C25A, C26A, C27U, C31G
DNA 1: CAATCTGAATTCCGGTCTCCC
DNA 2: TGGTGGCTACGACGGGATT
B22: UACCUAC (DNA:RNA)
RNA: B1 RNA with C25U, C26A, A28C, C29U, G30A
DNA 1: CAATCTGAATTCCGGTCTCCC
DNA 2: TGGTGGCTACGACGGGATT
B23: GGACUAA (DNA:RNA)
RNA: B7 RNA with U27A, U28C, A29U, U30A
DNA 1: CAATCTGAATTCCGGTCTCCC
DNA 2: TGGTGGCTACGACGGGATT
B24: CCAUGCC (DNA:RNA)
RNA: B1 RNA with C27A, A28U, C29G, G30C
DNA 1: CAATCTGAATTCCGGTCTCCC
DNA 2: TGGTGGCTACGACGGGATT
B25: GUAUGUG (DNA:RNA)
RNA: B7 RNA with G26U, U27A, A29G, A31G
DNA 1: CAATCTGAATTCCGGTCTCCC
DNA 2: TGGTGGCTACGACGGGATT
B26: ACUCCCG (DNA:RNA)
RNA: B1 RNA with C25A, C27U, A28C, G30C, C31G
DNA 1: CAATCTGAATTCCGGTCTCCC
DNA 2: TGGTGGCTACGACGGGATT
B27: CUUCAGC (DNA:RNA)
RNA: B1 RNA with C26U, C27U, A28C, C29A
DNA 1: CAATCTGAATTCCGGTCTCCC
DNA 2: TGGTGGCTACGACGGGATT
B28: GUCUGAU (DNA:RNA)
RNA: B7 RNA with G26U, U27C, A29G, U30A, A31U
DNA 1: CAATCTGAATTCCGGTCTCCC
DNA 2: TGGTGGCTACGACGGGATT
B29: AACAAGA (DNA:RNA)
RNA: B1 RNA with C25A, C26A, C29A, C31A
DNA 1: CAATCTGAATTCCGGTCTCCC
DNA 2: TGGTGGCTACGACGGGATT
B30: UGGAGUG (DNA:RNA)
RNA: B7 RNA with G25U, U27G, U28A, A29G, A31G
DNA 1: CAATCTGAATTCCGGTCTCCC
DNA 2: TGGTGGCTACGACGGGATT
B31: GUAAUGA (DNA:RNA)
RNA: B1 RNA with C25G, C26U, C27A, C29U, C31A
DNA 1: CAATCTGAATTCCGGTCTCCC
DNA 2: TGGTGGCTACGACGGGATT

These binders were tested against T1, RBFOX1 RRM (assay: EMSA; HiTS-Eq, 1 nM pool, 10 min; buffer printed only for the single-RNA assays: 10 mM Tris pH 7.5, 150 mM NaCl, 3.4 mM EDTA, 0.001% NP-40, 30 C). Details: tags: His6 N-terminal (pET28a); label: 5' 32P.
Outline: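 Purified RbFox RRM (wild type or mutant) was equilibrated for 10 min in 50 µL with 1 nM of a 5′-radiolabelled pool of RNA with 7 randomized nucleotides, its flanks annealed to DNA oligonucleotides, across increasing protein concentrations. Free RNA was separated by 8% native PAGE, excised, reverse-transcribed, PCR-barcoded and sequenced on an Illumina HiSeq 2500. Relative association constants came from read-count changes of each variant against the control reaction, normalised to the cognate motif.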

Binder | binding signal
B1 | 0.00611 KA relative to UGCAUGU
B2 | 0.00283 KA relative to UGCAUGU
B3 | 0.00665 KA relative to UGCAUGU
B4 | 0.021 KA relative to UGCAUGU
B5 | 0.0216 KA relative to UGCAUGU
B6 | 0.0186 KA relative to UGCAUGU
B7 | 0.00389 KA relative to UGCAUGU
B8 | 0.00726 KA relative to UGCAUGU
B9 | 0.0238 KA relative to UGCAUGU
B10 | 0.0149 KA relative to UGCAUGU
B11 | 0.0141 KA relative to UGCAUGU
B12 | 0.0108 KA relative to UGCAUGU
B13 | 0.0109 KA relative to UGCAUGU
B14 | 0.00306 KA relative to UGCAUGU
B15 | 0.00407 KA relative to UGCAUGU
B16 | 0.0244 KA relative to UGCAUGU

Binder | binding signal
B17 | 0.00953 KA relative to UGCAUGU
B18 | 0.00426 KA relative to UGCAUGU
B19 | 0.00438 KA relative to UGCAUGU
B20 | 0.00884 KA relative to UGCAUGU
B21 | 0.00325 KA relative to UGCAUGU
B22 | 0.00304 KA relative to UGCAUGU
B23 | 0.00992 KA relative to UGCAUGU
B24 | 0.00772 KA relative to UGCAUGU
B25 | 0.0175 KA relative to UGCAUGU
B26 | 0.00436 KA relative to UGCAUGU
B27 | 0.00679 KA relative to UGCAUGU
B28 | 0.0241 KA relative to UGCAUGU
B29 | 0.00213 KA relative to UGCAUGU
B30 | 0.0323 KA relative to UGCAUGU
B31 | 0.0136 KA relative to UGCAUGU
